Assay results published in PubChem BioAssay AID588855 (National Center for Advancing Translational Sciences (NCATS), 2011).
Screen size: about 410,000 compounds; about 5,000 (1.2%) were called active. Inconclusive means that the source gave no clear call. Such entries were picked first, then a sample of the others. Calls follow the shape of the dose curve; as a rule, active = well fitted inhibition curve with a large enough effect; inconclusive = small, poorly fitted or top-dose-only effect; inactive = no such curve, though single readings can be large or run the other way. A potency beside an inconclusive call is a rough fit, not a confirmed value.

test: qHTS for Inhibitors of TGF-b; conditions: HepG2 CAGA-GFP TGF-b/SMAD3 reporter, GFP fluorescence, 18 h, TGF-beta stimulated, 500 pg/mL final; series mostly up to 46.1 µM; activity, negative = inhibition: at the top concentration; also: nearly all actives have a fitted effect of over 65% in size
Outline: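 Per well, imaged GFP fluorescence of HEPG2 CAGA-GFP cells gives the signal; cells get compound, then TGF-beta (500 pg/mL final), 18 h at 37 degrees C; %Activity versus -TGF-beta and +DMSO controls.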
% is scaled to controls: 0 for no effect and ±100 for the full control effect; potency is read from the fitted curve at half-maximal effect; tags tell the direction and shape of the fitted curve.

Row | SMILES | Potency | activity, negative = inhibition
1 | C[C@H](NC(=O)C1CCN(S(=O)(=O)c2ccccc2)CC1)C(=O)NCc1ccc(Cl)cc1Cl | inconclusive: 28.2 µM [inhibitor, single point] | –
2 | COc1ccc(N2CCN(C3=CC(=O)N(c4cccc(Cl)c4)C3=O)CC2)cc1 | inconclusive: 35.5 µM [inhibitor, single point] | –
3 | COc1ccc(N(C(=O)COc2ccccc2OC)S(=O)(=O)c2ccc(C)cc2)cc1 | inconclusive: 35.5 µM [inhibitor, single point] | –
4 | CCOC(=O)C1=C(C)NC(C)=C(C(=O)OC)[C@H]1c1cccc([N+](=O)[O-])c1 | inconclusive: 12.6 µM [inhibitor, single point] | –
5 | Clc1ccc(OCCCNCc2ccccc2)c2ccccc12 | inconclusive: 14.1 µM [inhibitor, single point] | –
6 | COc1ccc(S(=O)(=O)NCCc2nnc3ccc(SCc4cccnc4)nn23)cc1 | inconclusive: 20 µM [inhibitor, partial curve, poor fit] | –
7 | CC1Cc2ccccc2N1C(=O)COC(=O)c1ccc([N+](=O)[O-])o1 (configuration not stated) | inconclusive: 35.5 µM [inhibitor, single point] | –
8 | COc1cccc(-c2noc(-c3ccc(Cl)nc3)n2)c1 | – | inactive: 13.1%
9 | CCCOC(=O)c1c(N)sc2c1CCC2 | inconclusive: 7.94 µM [inhibitor, partial curve, poor fit] | –
10 | NNC(=O)Cn1c2ccccc2c2ccccc21 | inconclusive: 35.5 µM [inhibitor, single point] | –
11 | CCCCCN(C(=O)NC(=O)Nc1ccc(C)cc1)S(=O)(=O)c1ccccc1 | inconclusive: 35.5 µM [inhibitor, single point] | –
12 | CCCn1c(N)c(N(CCOC)C(=O)COC(=O)COc2c(C)cc(C)cc2C)c(=O)[nH]c1=O | – | inactive: -1.28%
13 | O=C(c1ccco1)N1CCN(c2nc(C3CC3)nc3c2nnn3Cc2ccccc2Cl)CC1 | inconclusive: 28.2 µM [inhibitor, single point] | –
14 | COc1ccc(CSc2nc3ccncc3n2Cc2nc(-c3ccc(OC)c(OC)c3)oc2C)cc1 | inconclusive: 22.4 µM [inhibitor, single point] | –
15 | O=S1(=O)CCOC[C@H](CC2CCCCC2)N1Cc1ccc(Cl)cc1 | inconclusive: 0.447 µM [inhibitor, partial curve, poor fit] | –
16 | Cn1cc(CN(CCO)Cc2cccs2)c(-c2cccc(Cl)c2)n1 | inconclusive: 8.91 µM [inhibitor, partial curve, poor fit] | –
17 | Brc1ccc(C2Nc3cccc4cccc(c34)N2)s1 | – | inactive: 4.92%
18 | Cc1cccc2sc(N(Cc3cccnc3)C(=O)C3CCCCC3)nc12 | active: 10 µM | –
19 | COc1ccc(-c2ccc3c(c2)C2CC3CCN2C(=O)C2CCCCC2)cc1 (configuration not stated) | inconclusive: 11.2 µM [inhibitor, partial curve, poor fit] | –
20 | COc1ccc(S(=O)(=O)c2cn(CC(=O)Nc3ccccc3)c3ccc(Cl)cc3c2=O)cc1 | inconclusive: 11.2 µM [inhibitor, partial curve, poor fit] | –
21 | O=C(O)/C=C\C(=O)Nc1ccccc1C#Cc1ccccc1 | – | inactive: 2.89%

Row | SMILES | Potency | activity, negative = inhibition
22 | Cc1ccc(S(=O)(=O)N2CCC[C@H]2C(=O)Nc2ccccc2Cl)cc1 | – | inactive: 15.8%
23 | O=C(C1CC1)N1N=C(c2ccc(Cl)cc2)CC1(O)C(F)(F)F (configuration not stated) | inconclusive: 15.8 µM [inhibitor, single point] | –
24 | CCC1C(=O)N=C(SCC(=O)Nc2ccccc2)NC1=O (configuration not stated) | inconclusive: 5.01 µM [inhibitor, single point] | –
25 | COC(=O)C1(Cc2cc(-c3ccc(Cl)cc3)no2)CCN(C(=O)OC(C)(C)C)CC1 | inconclusive: 14.1 µM [inhibitor, partial curve, poor fit] | –
26 | CCc1ccc2[nH]c(=O)c(C3C(C#N)=C(N)Oc4c3ccc3cccnc43)cc2c1 (configuration not stated) | inconclusive: 35.5 µM [inhibitor, single point] | –
27 | O=[N+]([O-])c1ccc(/C=N/N2CCN(c3ccncc3S(=O)(=O)N3CCCCC3)CC2)cc1 | inconclusive: 5.62 µM [inhibitor, single point] | –
28 | Cc1cc(C)nc(-n2nc(C)cc2NC(=O)CN2CCC(C)CC2)n1 | active: 15.8 µM | –
29 | COc1cnn(-c2ccc(F)cc2)c(=O)c1Br | – | inactive: -4.22%
30 | C(=N\Nc1ncnc2nc[nH]c12)/c1cccs1 | inconclusive: 11.2 µM [inhibitor, partial curve, poor fit] | –
31 | COc1ccccc1N1CCN(C(=O)C2c3ccccc3Oc3ccccc32)CC1 | inconclusive: 35.5 µM [inhibitor, single point] | –
32 | COc1ccc(CNC(=O)c2cnc(N3CCCC3)nc2C)cc1 | – | inactive: 5.14%
33 | NS(=O)(=O)c1ccc(N=Nc2ccc(O)c3ncccc23)cc1 | active: 8.91 µM | –
34 | O=C(CCCCn1cnc2c(=S)nc[nH]c21)Nc1ccc(C(=O)O)c(O)c1 | – | inactive: 21.2%
35 | COc1ccc(S(=O)(=O)NCc2cccn2Cc2cccc(C)c2)cc1OC | inconclusive: 22.4 µM [inhibitor, single point] | –
36 | O=C(CCCC(=O)OCC(=O)c1ccc(Cl)cc1)NC1CCCCC1 | – | inactive: -7.49%
37 | Cc1ccc(O)c(Sc2cc(C)ccc2O)c1 | inconclusive: 35.5 µM [inhibitor, single point] | –
38 | COc1ccc(C2NC3=C(CCC3)C3(C#N)C4(N=C(N)C23C#N)OCCO4)cc1 (configuration not stated) | inconclusive: 4.47 µM [inhibitor, partial curve, poor fit] | –
39 | Cc1ccc(C2NC(c3ccc(C)cc3)C(C)C(=O)C2C)cc1 (configuration not stated) | – | inactive: -19.6%
40 | O=C(NCC1CCN(Cc2cccc(Cl)c2)CC1)Nc1ccc(Cl)cc1 | inconclusive: 17.8 µM [inhibitor, single point] | –
41 | CCCn1c(CCC(=O)Nc2ccccc2Cc2ccccc2)nc2cc(S(=O)(=O)N3CCOCC3)ccc21 | inconclusive: 5.01 µM [inhibitor, full curve, poor fit] | –
42 | O=[N+]([O-])c1ccc(NC(=S)N2CCN(c3ccc(F)cc3)CC2)cc1 | inconclusive: 20 µM [inhibitor, single point] | –
